Among all 45,000 compounds or so, about 200 (0.44%) were called active. Another 7% or so got no clear call; they are omitted. The call rests on the fitted dose curve; in most records, active means well fitted activation curve with a large enough effect; inconclusive means small, poorly fitted or top-dose-only effect; inactive means no such curve, though single readings can be large or run the other way. Some of the results follow.

A short description of this assay: qHTS of TDP-43 Inhibitors: NCGC Sytravon Library Screen. Further: 0% is about no effect; nearly all actives have a fitted effect of over 55% in size. Conditions: yeast TDP-43 toxicity rescue, BacTiter-Glo growth, 24 h; series mostly up to 46.1 µM; growth rescue (activation): at the top concentration. In a few lines: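 TDP-43-expressing yeast, pregrown in raffinose, seeded at OD600 0.02 in galactose medium with compound for 24 hr at 30 deg C. Growth read by BacTiter-Glo luminescence, so rescue of toxicity appears as activation.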
Consider `CCn1c(O)c(N=NC(=O)c2cccnc2)c2cc(Br)ccc21`, for which the “growth rescue (activation)” value was inactive: 4.63%.

As to `CCNC(=O)COc1cccc(C(=O)NCc2ccccc2)c1`, the “growth rescue (activation)” value was inactive: -8.76%.

Regarding `CN(C)c1ccc(/C=N/N(CCC(=O)NC(C)(C)C)C2=NS(=O)(=O)c3ccccc32)cc1`, the “growth rescue (activation)” value was inactive: 9.85%.

Consider `O=C(Nc1nc(OCC(F)(F)F)cnc1/C=C\c1ccccc1)c1ccsc1`, for which the “growth rescue (activation)” value was inactive: -6.28%.

On to `CCOc1ccc(N2CC(C(=O)N3CCc4ccccc43)CC2=O)cc1` (stereo not drawn), for which the “growth rescue (activation)” value is inactive: 26.2%.

Consider `COc1cccc(CN(Cc2ccccc2F)S(=O)(=O)c2ccc(S(=O)(=O)NCc3ccccc3)cc2)c1`, for which the “growth rescue (activation)” value is inactive: 5.34%.

In the case of `COc1ccc(NC(=O)c2c([N+](=O)[O-])c(C(C)(C)C)nn2C)cc1`, the “growth rescue (activation)” value was inactive: 0.68%.

Consider `O=C(O)c1c(Cl)nc2ccccn12`, for which the “growth rescue (activation)” value was inactive: 4.45%.

Turning to `Cn1c(Cn2cnc(Cl)c2Cl)nc2ccccc21`, the “growth rescue (activation)” value is inactive: 6%.

With `COc1ccc(C(C(=O)NC2CCCC2)N(C(=O)c2csnn2)C2CCCC2)cc1` (stereo not drawn), the “growth rescue (activation)” value is inactive: -5.56%.

For `COc1ccc(S(=O)(=O)NC(=O)C2(C)CCN2C(=O)Cc2ccccc2Cl)cc1OC` (stereo not drawn), the “growth rescue (activation)” value is inactive: -13.1%.

For `Cc1ccc(-n2[nH]c3c4c(ccc3c2=O)C(=O)c2ccccc2C4=O)cc1`, the “growth rescue (activation)” value was inactive: 0.064%.

Turning to `CC(C)(C)C1=NN(c2ccc([N+](=O)[O-])cc2)C(c2ccccc2)C1` (stereo not drawn), the “growth rescue (activation)” value is inactive: 15.9%.

For the molecule `CCOc1ccc(C(=O)Nc2ccc(C(F)(F)F)n(C)c2=O)cc1`, the “growth rescue (activation)” value was inactive: 0.897%.

As for `CCOCCCNC(=O)/C(C#N)=C/c1ccc(C)o1`, the “growth rescue (activation)” value was inactive: 6.23%.

In the case of `NS(=O)(=O)c1ccc(CCNC(=O)CNC(=O)c2ccc(Oc3ccccc3)cc2)cc1`, the “growth rescue (activation)” value is inactive: 13.7%.

Take `COc1ccc(C2C3=C(CCCC3=O)N(CC(=O)O)C3=C2C(=O)CCC3)cc1Cl`: the “growth rescue (activation)” value was inactive: 13.3%.

`CCOC(=O)c1c(-c2cccc([N+](=O)[O-])c2)csc1NC(=O)CCCOc1ccccc1`: the “growth rescue (activation)” value is inactive: 5.63%.

As for `O=C(Cn1nnc(-c2ccccc2)n1)NNC(=O)c1cccc([N+](=O)[O-])c1`, the “growth rescue (activation)” value is inactive: 11.6%.

Take `COc1ccc(N2C(=O)CCC(C(=O)NCCCN3CCC(C)CC3)C2c2ccc(OC)c(OC)c2)cc1` (stereo not drawn): the “growth rescue (activation)” value was inactive: -0.858%.

On to `C/C(CCc1ccccc1)=N\NC(=O)c1ccc(CN2CCOCC2)cc1`, for which the “growth rescue (activation)” value was inactive: 16.6%.

On to `CC(=O)Nc1ccc(NC(=O)c2sc(-c3ccccc3)nc2C)cc1`, for which the “growth rescue (activation)” value is inactive: 6.69%.

For the molecule `CCCN(C(=O)CSc1cc(-c2ccccc2)c2ccc(OC)cc2n1)C1CCS(=O)(=O)C1` (stereo not drawn), the “growth rescue (activation)” value was inactive: 19.2%.

Turning to `Clc1ccc(-c2cc(-c3nnc4n3CCCCC4)c3ccccc3n2)cc1`, the “growth rescue (activation)” value was inactive: 13.3%.

As to `O=C(COc1cccnc1[N+](=O)[O-])N1CCN(S(=O)(=O)c2ccccc2)CC1`, the “growth rescue (activation)” value was inactive: 11.7%.

With `CC(C)CC(=O)Nc1c2c(nn1-c1ccc(F)cc1)CS(=O)(=O)C2`, the “growth rescue (activation)” value was inactive: 20.8%.

On to `CN(C)S(=O)(=O)c1cccc(NC(=O)c2n[nH]c(=O)c3ccccc23)c1`, for which the “growth rescue (activation)” value was inactive: 3.78%.

For the molecule `Cc1[nH]nc(SCC(=O)Nc2cccc(O)c2)c1[N+](=O)[O-]`, the “growth rescue (activation)” value was inactive: 4.46%.

As for `CCN1C(=O)C(CC(=O)Nc2ccc(OC)cc2)N(CCCN2CCN(c3ccc(OC)cc3)CC2)C1=S` (stereo not drawn), the “growth rescue (activation)” value is inactive: 9.7%.

With `O=C(CN1C(=O)NC(Cc2ccccc2)C1=O)Nc1ccccc1` (stereo not drawn), the “growth rescue (activation)” value is inactive: 18.2%.

For `COc1cccc(CN2CCC(CO)(CC3CCCCO3)CC2)c1` (stereo not drawn), the “growth rescue (activation)” value was inactive: -14.7%.

As to `O=C(c1ccc2c(c1)OCO2)C1CCCN(C2CCN(CCc3ccccc3)CC2)C1` (stereo not drawn), the “growth rescue (activation)” value is inactive: 10.1%.

In the case of `COc1ccc(CC(=O)Nc2sc3c(c2C(N)=O)CCCC3)cc1OC`, the “growth rescue (activation)” value is inactive: 15.5%.

Take `COc1ccccc1C(=O)Nc1ccccc1N1CCN(S(C)(=O)=O)CC1`: the “growth rescue (activation)” value was inactive: 16.3%.

For the molecule `CNc1ccccc1C(C)(C)c1cn(-c2ccc([N+](=O)[O-])cc2)nn1`, the “growth rescue (activation)” value was inactive: 3.38%.

On to `CCn1c(CC(=O)Nc2ccccc2C)nnc1SCC(=O)Nc1nncs1`, for which the “growth rescue (activation)” value is inactive: 3.51%.

With `Cc1ccc2nc(-c3ccc(N4C(=N)SC5CS(=O)(=O)CC54)cc3)sc2c1` (stereo not drawn), the “growth rescue (activation)” value was inactive: -0.323%.

On to `COc1ccccc1C(=O)NCCc1nc2ccccc2n1C`, for which the “growth rescue (activation)” value is inactive: 14.1%.

As for `CC/C(O)=C1\C(=O)CC(c2ccccc2)CC1=NCCC(=O)O` (stereo not drawn), the “growth rescue (activation)” value was inactive: -8.44%.

Turning to `Cc1cc(C)cc(N(C(=O)CCC(=O)Nc2cc(C)on2)C(C(=O)NC2CCCC2)c2ccco2)c1` (stereo not drawn), the “growth rescue (activation)” value was inactive: -18.9%.

Consider `COc1ccc(S(=O)(=O)N2CCN(Cc3ccco3)CC2)cc1`, for which the “growth rescue (activation)” value was inactive: 13.3%.

For the molecule `Cc1ccccc1S(=O)(=O)NC(=O)C1(C)CCN1C(=O)COc1ccc(Cl)cc1` (stereo not drawn), the “growth rescue (activation)” value was inactive: 11%.

On to `Cc1nc2ncccn2c1-c1csc(Nc2cccc(C(=O)O)c2)n1`, for which the “growth rescue (activation)” value was inactive: 10.2%.

Turning to `COc1ccc(Cl)cc1NC(=O)C(=O)NCc1ccncc1`, the “growth rescue (activation)” value is inactive: -14.6%.

Regarding `Cc1ccccc1Cn1cc(NC(=O)CCCn2nc([N+](=O)[O-])cc2C)cn1`, the “growth rescue (activation)” value was inactive: -1.75%.

For `O=C(O)c1ccc(Cl)c(S(=O)(=O)N(Cc2ccccc2)c2ccc(Cl)cc2)c1`, the “growth rescue (activation)” value is inactive: -4.45%.

`CCCCNC(=O)C1CCCN(S(=O)(=O)CC)C1` (stereo not drawn): the “growth rescue (activation)” value is inactive: -4.74%.

`OCCC1CN(Cc2c(F)cccc2Cl)CCN1C1CCCCC1` (stereo not drawn): the “growth rescue (activation)” value is inactive: -4.6%.

For the molecule `COCCN(Cc1nnc(-c2cccs2)o1)C(=O)CN1C(=O)NC2(CCCCC2)C1=O`, the “growth rescue (activation)” value was inactive: -16.2%.

`O=C(CCCc1c[nH]c2ccccc12)NCc1ccccc1F`: the “growth rescue (activation)” value was inactive: -3.69%.

Turning to `CCOc1ccc(C(CC(=O)O)NC(=O)c2cccs2)cc1` (stereo not drawn), the “growth rescue (activation)” value is inactive: -0.98%.

As to `CC(=O)Nc1ncc(Cc2cccc(Cl)c2)s1`, the “growth rescue (activation)” value was inactive: -11.8%.

Take `O=C(Nc1ccc2c(c1)OCCO2)C1CCCN1C(=O)Nc1ccccc1` (stereo not drawn): the “growth rescue (activation)” value was inactive: 9.22%.

The values are drawn from PubChem BioAssay AID1347073 (National Center for Advancing Translational Sciences (NCATS), 2019).
